The supplement of paper PMC3334620
Over roughly 33,000 sequences, “E-score (-0.5 to 0.5)” has its median near -0.013; the highest 2% begin near 0.3. Some of the results follow.

biological target: T1, Msn1 (UniProt P22148); assay: PBM E-score (8-mer binding enrichment) (E-score (-0.5 to 0.5)); higher = stronger / more preferred TF binding; most listed sequences are background and not binding sites; conditions: protein concentration: 200 nM; construct: GST-full length
T1 sequence: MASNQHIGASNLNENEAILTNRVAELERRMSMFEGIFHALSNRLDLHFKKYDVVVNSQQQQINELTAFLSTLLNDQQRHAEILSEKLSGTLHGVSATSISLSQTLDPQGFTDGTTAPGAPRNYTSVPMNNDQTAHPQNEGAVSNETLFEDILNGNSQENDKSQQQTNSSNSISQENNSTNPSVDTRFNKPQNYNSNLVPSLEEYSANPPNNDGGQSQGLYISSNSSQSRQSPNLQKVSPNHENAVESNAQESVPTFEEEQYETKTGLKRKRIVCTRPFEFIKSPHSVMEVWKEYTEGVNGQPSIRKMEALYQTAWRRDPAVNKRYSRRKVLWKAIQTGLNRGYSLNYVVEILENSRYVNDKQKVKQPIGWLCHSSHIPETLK
Outline: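 The E-score, a modified Wilcoxon-Mann-Whitney statistic, was computed by the Universal PBM Analysis Suite for every ungapped eight-base word pooled with its reverse complement. Scans behind it were normalised with masliner after bound GST-tagged yeast transcription factors were detected with fluorescent anti-GST. The proteins, at about 100-200 nM, had been applied to universal all-10-mer Agilent arrays made double-stranded by primer extension.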

Sequence	PBM E-score
CAAGCGGA	-0.034
ATACTTCA	0.0733
CAATAAGA	0.0742
ATCCCCGA	-0.0379
ACGGCTCT	-0.0827
ATCTTAAA	0.16
TCGCCAAA	-0.077
ATTTGCTG	0.0441
CCTCATTA	0.00599
AATATCAC	0.133
CAGCGACC	-0.133
AAGTCAAC	-0.084
AGTTCTCG	0.015
AGCTGAGC	-0.211
CTGCGATC	-0.159
AAAGGCAT	-0.0977
AATCCTTG	0.168
GGAGGCGA	-0.248
ATTCTCAG	0.101
ATCAGAAA	0.0721
AACGCCCC	0.017
ACTTTCAT	0.0582

Sequence	PBM E-score
AATAGGGC	-0.122
CAGGTGGA	-0.193
TGTAACAA	0.0916
CGTCTGAC	-0.051
CTTAACTA	0.188
ATCTTAAG	0.034
CTAGTGAG	-0.133
GCTCCAGA	-0.0316
AATCCCAC	-0.147
CGTCGCCC	-0.134
CCCCAGCC	-0.271
CATTACGC	-0.0393
ATGTGGGC	-0.0708
CACAGCTA	-0.0605
CGATAGGA	-0.162
ACGGACGG	0.00266
AAGCGATG	0.082
GGAGATTA	-0.121
TGGGCCAA	-0.0623
GAAAACAA	0.18
ATAAGCAT	0.0942
CAGGTGGG	-0.175

Sequence	PBM E-score
CAAGATAC	0.115
ATGGAAGA	-0.155
ATGTATAA	0.264
CGGTGATC	-0.174
TGAACGCA	-0.0234
AATCTTCG	0.0326
AGCCGACA	-0.00627
CTATCTCC	-0.0897
AGCGACAC	0.0837
AACTGTCG	0.078
AATCCTCC	-0.227
ACGGCTGA	0.00781
CCTTCTTC	-0.316
AAAGTTGA	0.098
CCTCTACA	-0.142
ATGTTTGG	0.0609
GATCTTGA	0.0536
AAGCGCCG	0.1
CCAACAAC	-0.0621
GGACGAAA	0.287
TAAAAGCA	-0.035
AGGCCACC	-0.296

Sequence	PBM E-score
TCTTGGAA	-0.0574
AGAATAAT	-0.064
AGGCTCAC	-0.126
AGCATTTC	0.186
CACTTAAA	0.0414
CTTCGGAA	0.206
GACCCCCC	-0.413
ATACTTCG	0.123
GTGGGTTA	-0.0624
CATAATAC	-0.00236
ATTCTAGC	0.0901
CAGATATG	0.0698
TCAAAGAA	-0.0114
ATACTAAT	0.122
GCATTGGA	-0.145
GCCATGCC	-0.0334
GAAGGGTA	-0.158
CGGAATAG	0.0199
TATCTTCA	-0.0214
CGGTTGCC	0.134
